Molecular target: GB1a/2 receptors (Homo sapiens, UniProt O75899+Q9UBS5)
Experiment: SRE-luciferase accumulation assay (Gαqi/PLC) in HEK293T-Gαqi cells
Settings: GB1a/2 + APP, different curve for each data set; for LogEC50 of GABA in presence of peptide: X = Log [GABA] (M)

Chain of GB1a/2 receptors (Q9UBS5 15-961 limits assumed): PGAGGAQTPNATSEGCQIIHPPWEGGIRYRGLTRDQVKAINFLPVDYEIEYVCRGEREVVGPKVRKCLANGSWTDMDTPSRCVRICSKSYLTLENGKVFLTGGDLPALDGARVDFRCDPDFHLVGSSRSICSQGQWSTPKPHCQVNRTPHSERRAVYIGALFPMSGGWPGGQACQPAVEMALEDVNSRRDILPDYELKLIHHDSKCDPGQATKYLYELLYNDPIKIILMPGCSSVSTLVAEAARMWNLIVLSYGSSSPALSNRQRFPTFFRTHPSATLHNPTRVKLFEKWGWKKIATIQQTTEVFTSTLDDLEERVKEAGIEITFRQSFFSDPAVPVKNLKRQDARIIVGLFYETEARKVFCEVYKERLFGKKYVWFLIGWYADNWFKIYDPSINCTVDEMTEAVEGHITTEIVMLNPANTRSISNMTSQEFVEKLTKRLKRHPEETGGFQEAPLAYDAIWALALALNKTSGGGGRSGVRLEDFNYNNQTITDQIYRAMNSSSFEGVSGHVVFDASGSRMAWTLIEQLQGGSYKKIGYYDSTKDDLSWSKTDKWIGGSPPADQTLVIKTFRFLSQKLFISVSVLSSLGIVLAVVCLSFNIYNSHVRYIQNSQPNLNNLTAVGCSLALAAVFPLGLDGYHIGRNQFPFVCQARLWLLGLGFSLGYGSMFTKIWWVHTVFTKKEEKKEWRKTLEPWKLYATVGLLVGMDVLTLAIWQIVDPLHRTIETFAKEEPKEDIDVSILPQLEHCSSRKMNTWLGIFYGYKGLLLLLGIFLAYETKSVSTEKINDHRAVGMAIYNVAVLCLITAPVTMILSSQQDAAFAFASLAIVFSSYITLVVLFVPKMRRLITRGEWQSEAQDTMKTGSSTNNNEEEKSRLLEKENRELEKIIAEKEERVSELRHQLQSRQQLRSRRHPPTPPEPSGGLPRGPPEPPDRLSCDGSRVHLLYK
Chain of GB1a/2 receptors (O75899 42-941 partner): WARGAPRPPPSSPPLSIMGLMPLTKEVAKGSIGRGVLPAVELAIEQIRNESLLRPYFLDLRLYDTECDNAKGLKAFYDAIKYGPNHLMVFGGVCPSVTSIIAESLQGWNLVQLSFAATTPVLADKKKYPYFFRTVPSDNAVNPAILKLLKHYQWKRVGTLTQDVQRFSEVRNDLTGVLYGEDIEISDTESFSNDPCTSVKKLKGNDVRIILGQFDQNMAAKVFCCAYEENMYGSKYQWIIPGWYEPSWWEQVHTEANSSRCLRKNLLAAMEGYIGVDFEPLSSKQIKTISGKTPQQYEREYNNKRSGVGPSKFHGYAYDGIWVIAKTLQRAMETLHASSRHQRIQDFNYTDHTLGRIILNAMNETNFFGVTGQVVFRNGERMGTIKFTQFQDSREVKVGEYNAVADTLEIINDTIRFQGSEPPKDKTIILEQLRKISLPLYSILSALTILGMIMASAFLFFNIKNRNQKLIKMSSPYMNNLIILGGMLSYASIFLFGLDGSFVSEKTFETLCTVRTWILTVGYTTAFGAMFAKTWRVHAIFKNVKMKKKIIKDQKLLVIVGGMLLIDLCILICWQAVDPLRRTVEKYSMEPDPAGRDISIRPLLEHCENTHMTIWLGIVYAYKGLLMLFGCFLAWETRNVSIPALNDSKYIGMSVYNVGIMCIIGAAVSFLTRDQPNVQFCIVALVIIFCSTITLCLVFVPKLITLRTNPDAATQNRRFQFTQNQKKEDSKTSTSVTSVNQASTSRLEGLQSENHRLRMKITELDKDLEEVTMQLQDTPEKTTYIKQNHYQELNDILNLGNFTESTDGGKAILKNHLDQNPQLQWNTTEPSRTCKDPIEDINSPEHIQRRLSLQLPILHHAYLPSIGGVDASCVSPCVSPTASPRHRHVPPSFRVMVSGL

Substance: Ac-DDSDVWWGGADTDYADG-NH2 [APP17]
- LogEC50 of GABA in presence of peptide (1μM peptide): -6.504
- Top of GABA dose-response curve in presence of peptide (1μM peptide): 0.9903
- LogEC50 of GABA in presence of peptide (10μM peptide): -6.467
